According to the supplement of paper PMC8728848:
Some of the results follow.

Assays:
Test in all cases: glycan array binding signal (z-score within array); higher = stronger binding
Conditions in all cases: glycan notation: IUPAC condensed, linker removed
[1] = target: Neu5Ac(a2-3)Gal(b1-3)GalNAc(b1-4)[Neu5Ac(a2-3)]Gal(b1-4)Glc
Summary of the method: (§1)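 Glycan array binding is given as a within-array Z-score, which can be read as non-binding when negative. The arrays, 3228 of them, came from the Consortium for Functional Glycomics database and were retained only where the protein sequence was available. Z-scores were averaged across arrays of the same protein sequence at different concentrations or buffers and across linkers.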

[2] = target: Neu5Ac(a2-3)Gal(b1-3)GalNAc(b1-4)[Neu5Ac(a2-8)Neu5Ac(a2-3)]Gal(b1-4)Glc
Summary of the method: as §1

[3] = target: Neu5Ac(a2-3)Gal(b1-3)GalNAc6S
Summary of the method: as §1

[4] = target: Neu5Ac(a2-3)Gal(b1-3)GlcNAc
Summary of the method: as §1

[5] = target: Neu5Ac(a2-3)Gal(b1-3)GlcNAc(b1-2)Man
Summary of the method: as §1

[6] = target: Neu5Ac(a2-3)Gal(b1-3)GlcNAc(b1-2)Man(a1-3)[GlcNAc(b1-4)][Neu5Ac(a2-3)Gal(b1-3)GlcNAc(b1-2)Man(a1-6)]Man(b1-4)GlcNAc(b1-4)GlcNAc
Summary of the method: as §1

[7] = target: Neu5Ac(a2-3)Gal(b1-3)GlcNAc(b1-2)Man(a1-3)[Neu5Ac(a2-3)Gal(b1-3)GlcNAc(b1-2)Man(a1-6)]Man(b1-4)GlcNAc(b1-4)GlcNAc
Summary of the method: as §1

[8] = target: Neu5Ac(a2-3)Gal(b1-3)GlcNAc(b1-2)[Neu5Ac(a2-3)Gal(b1-3)GlcNAc(b1-4)]Man(a1-6)[Neu5Ac(a2-3)Gal(b1-3)GlcNAc(b1-2)Man(a1-3)]Man(b1-4)GlcNAc(b1-4)GlcNAc
Summary of the method: as §1

[9] = target: Neu5Ac(a2-3)Gal(b1-3)GlcNAc(b1-3)Gal(b1-3)GlcNAc
Summary of the method: as §1

[10] = target: Neu5Ac(a2-3)Gal(b1-3)GlcNAc(b1-3)Gal(b1-4)GlcNAc
Summary of the method: as §1

[11] = target: Neu5Ac(a2-3)Gal(b1-3)GlcNAc(b1-3)GalNAc
Summary of the method: as §1

[12] = target: Neu5Ac(a2-3)Gal(b1-3)GlcNAc(b1-4)Gal(b1-4)Glc
Summary of the method: as §1

[13] = target: Neu5Ac(a2-3)Gal(b1-3)GlcNAc(b1-6)GalNAc
Summary of the method: as §1

[14] = target: Neu5Ac(a2-3)Gal(b1-3)GlcNAc6S
Summary of the method: as §1

[15] = target: Neu5Ac(a2-3)Gal(b1-3)[Fuc(a1-4)]GlcNAc
Summary of the method: as §1

[16] = target: Neu5Ac(a2-3)Gal(b1-3)[Fuc(a1-4)]GlcNAc(b1-3)Gal(b1-3)[Fuc(a1-4)]GlcNAc
Summary of the method: as §1

[17] = target: Neu5Ac(a2-3)Gal(b1-3)[Fuc(a1-4)]GlcNAc(b1-3)Gal(b1-4)[Fuc(a1-3)]GlcNAc
Summary of the method: as §1

[18] = target: Neu5Ac(a2-3)Gal(b1-3)[GlcNAc(b1-6)]GalNAc
Summary of the method: as §1

[19] = target: Neu5Ac(a2-3)Gal(b1-3)[Neu5Ac(a2-3)Gal(b1-4)]GlcNAc
Summary of the method: as §1

[20] = target: Neu5Ac(a2-3)Gal(b1-3)[Neu5Ac(a2-6)]GalNAc
Summary of the method: as §1

[21] = target: Neu5Ac(a2-3)Gal(b1-3)[Neu5Ac(a2-6)]GlcNAc(b1-3)[Fuc(a1-3)[Gal(b1-4)]GlcNAc(b1-6)]Gal(b1-4)Glc
Summary of the method: as §1

[22] = target: Neu5Ac(a2-3)Gal(b1-3)]Neu5Ac(a2-3)Gal(b1-4)]GlcNAc
Summary of the method: as §1

Neu5Ac(a2-3)Gal(b1-4)Glc = target: Neu5Ac(a2-3)Gal(b1-4)Glc
Summary of the method: as §1

[23] = target: Neu5Ac(a2-3)Gal(b1-4)GlcNAc
Summary of the method: as §1

[24] = target: Neu5Ac(a2-3)Gal(b1-4)GlcNAc(b1-2)Man
Summary of the method: as §1

[25] = target: Neu5Ac(a2-3)Gal(b1-4)GlcNAc(b1-2)Man(a1-3)[GlcNAc(b1-2)Man(b1-4)GlcNAc(b1-2)Man(a1-6)]Man(b1-4)GlcNAc(b1-4)GlcNAc
Summary of the method: as §1

[26] = target: Neu5Ac(a2-3)Gal(b1-4)GlcNAc(b1-2)Man(a1-3)[GlcNAc(b1-4)][Neu5Ac(a2-3)Gal(b1-4)GlcNAc(b1-2)Man(a1-6)]Man(b1-4)GlcNAc(b1-4)GlcNAc
Summary of the method: as §1

[27] = target: Neu5Ac(a2-3)Gal(b1-4)GlcNAc(b1-2)Man(a1-3)[Neu5Ac(a2-3)Gal(b1-4)GlcNAc(b1-2)Man(a1-6)]Man(b1-4)GlcNAc(b1-4)GlcNAc
Summary of the method: as §1

[28] = target: Neu5Ac(a2-3)Gal(b1-4)GlcNAc(b1-2)Man(a1-3)[Neu5Ac(a2-3)Gal(b1-4)GlcNAc(b1-2)Man(a1-6)]Man(b1-4)GlcNAc(b1-4)[Fuc(a1-6)]GlcNAc
Summary of the method: as §1

[29] = target: Neu5Ac(a2-3)Gal(b1-4)GlcNAc(b1-2)Man(a1-3)[Neu5Ac(a2-6)Gal(b1-4)GlcNAc(b1-2)Man(a1-6)]Man(b1-4)GlcNAc(b1-4)GlcNAc
Summary of the method: as §1

[30] = target: Neu5Ac(a2-3)Gal(b1-4)GlcNAc(b1-2)[Neu5Ac(a2-3)Gal(b1-4)GlcNAc(b1-4)]Man(a1-3)[GlcNAc(b1-4)][Neu5Ac(a2-3)Gal(b1-4)GlcNAc(b1-2)[Neu5Ac(a2-3)Gal(b1-4)GlcNAc(b1-6)]Man(a1-6)]Man(b1-4)GlcNAc(b1-4)GlcNAc
Summary of the method: as §1

[31] = target: Neu5Ac(a2-3)Gal(b1-4)GlcNAc(b1-2)[Neu5Ac(a2-3)Gal(b1-4)GlcNAc(b1-4)]Man(a1-3)[GlcNAc(b1-4)][Neu5Ac(a2-3)Gal(b1-4)GlcNAc(b1-4)Man(a1-6)]Man(b1-4)GlcNAc(b1-4)GlcNAc
Summary of the method: as §1

[32] = target: Neu5Ac(a2-3)Gal(b1-4)GlcNAc(b1-2)[Neu5Ac(a2-3)Gal(b1-4)GlcNAc(b1-6)]Man(a1-6)[Neu5Ac(a2-3)Gal(b1-4)GlcNAc(b1-2)Man(a1-3)]Man(b1-4)GlcNAc(b1-4)GlcNAc
Summary of the method: as §1

[33] = target: Neu5Ac(a2-3)Gal(b1-4)GlcNAc(b1-2)[Neu5Ac(a2-3)Gal(b1-4)GlcNAc(b1-6)]Man(a1-6)[Neu5Ac(a2-3)Gal(b1-4)GlcNAc(b1-2)Man(a1-3)][GlcNAc(b1-4)]Man(b1-4)GlcNAc(b1-4)GlcNAc
Summary of the method: as §1

[34] = target: Neu5Ac(a2-3)Gal(b1-4)GlcNAc(b1-3)Gal
Summary of the method: as §1

[35] = target: Neu5Ac(a2-3)Gal(b1-4)GlcNAc(b1-3)Gal(b1-3)GlcNAc
Summary of the method: as §1

[36] = target: Neu5Ac(a2-3)Gal(b1-4)GlcNAc(b1-3)Gal(b1-4)GlcNAc
Summary of the method: as §1

[37] = target: Neu5Ac(a2-3)Gal(b1-4)GlcNAc(b1-3)Gal(b1-4)GlcNAc(b1-2)Man(a1-3)[Neu5Ac(a2-3)Gal(b1-4)GlcNAc(b1-3)Gal(b1-4)GlcNAc(b1-2)Man(a1-6)]Man(b1-4)GlcNAc(b1-4)GlcNAc
Summary of the method: as §1

B1: rAAL-2 (Agrocybe aegerita) (protein)
chain: MTSNVITQDLPIPVASRGFADIVGFGLDGVVIGRNAVNLQPFLAVKNFAQNAGGWLTTKHVRLIADTTGTGKGDIVGFGNAGVYVSVNNGKNTFADPPKMVIANFGYDAGGWRVEKHLRYLADIRKIGRADIIGFGEKGVLVSRNNGGLNFGPATLVLKDFGYDAGGWRLDRHLRFLADVTGNGHLDIVGFGDKHVFISRNNGDGTFAPAKSVIDNFCIDAGGWKIGDHPRFVADLTGDGTADIIGCGKAGCWVALNNGGGVFGQVKLVINDFGTDKGWQAAKHPRFIADLTGNGRGDVVGFGNAGVYVALNNGDGTFQSAKLVLKDFGVQQGWTVSKHRRFVVDLTGDGCADIIGFGEKETLVSYNDGKGNFGPVKALTNDFSFSGGKWAPETTVCWMANLDSSRH
[1]
  glycan array binding signal (z-score): -0.236
[2]
  glycan array binding signal (z-score): -0.103
[3]
  glycan array binding signal (z-score): -0.202
[4]
  glycan array binding signal (z-score): -0.333
[5]
  glycan array binding signal (z-score): -0.53
[6]
  glycan array binding signal (z-score): -0.083
[7]
  glycan array binding signal (z-score): -0.408
[8]
  glycan array binding signal (z-score): -0.014
[9]
  glycan array binding signal (z-score): -0.277
[10]
  glycan array binding signal (z-score): -0.374
[11]
  glycan array binding signal (z-score): -0.061
[12]
  glycan array binding signal (z-score): -0.285
[13]
  glycan array binding signal (z-score): -0.419
[14]
  glycan array binding signal (z-score): 0.016
[15]
  glycan array binding signal (z-score): -0.392
[16]
  glycan array binding signal (z-score): -0.279
[17]
  glycan array binding signal (z-score): -0.151
[18]
  glycan array binding signal (z-score): -0.225
[19]
  glycan array binding signal (z-score): -0.181
[20]
  glycan array binding signal (z-score): -0.092
[21]
  glycan array binding signal (z-score): -0.107
[22]
  glycan array binding signal (z-score): -0.256
Neu5Ac(a2-3)Gal(b1-4)Glc
  glycan array binding signal (z-score): -0.151
[23]
  glycan array binding signal (z-score): -0.177
[24]
  glycan array binding signal (z-score): -0.123
[25]
  glycan array binding signal (z-score): -0.132
[26]
  glycan array binding signal (z-score): -0.314
[27]
  glycan array binding signal (z-score): -0.431
[28]
  glycan array binding signal (z-score): 0.355
[29]
  glycan array binding signal (z-score): -0.234
[30]
  glycan array binding signal (z-score): -0.304
[31]
  glycan array binding signal (z-score): -0.303
[32]
  glycan array binding signal (z-score): -0.266
[33]
  glycan array binding signal (z-score): -0.33
[34]
  glycan array binding signal (z-score): -0.222
[35]
  glycan array binding signal (z-score): -0.105
[36]
  glycan array binding signal (z-score): -0.146
[37]
  glycan array binding signal (z-score): -0.02
